Lines with a small IC50 respond at low doses; where the fit passes the top or lowest dose, that dose stands as a limit. For AUC the same curve is integrated over the 256-fold range of doses and scaled to a fraction: 1 means no effect, lower means more sensitive. For some assays here: The top dose, if marked as inferred, was calculated from the reported fits. For some assays here: Drugs with an entry number were screened twice under separate entries, and the two screens often disagree.
Assays:
Experiment in all cases: Viability of human cancer cell lines after 72 h of drug (GDSC screen)
Y-39983 = compound: C[C@@H](N)c1ccc(C(=O)Nc2ccnc3[nH]ccc23)cc1 [Y-39983]; details: top dose 20 µM; top dose inferred
Description: (§1)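 Human cancer cell lines in 384-well plates, medium with 10% serum, drug for 72 h over a 256-fold dose range (nine 2-fold or five 4-fold steps up to the top dose). Adherent lines were fixed and stained with the nucleic acid dye Syto60, suspension lines read with resazurin; signal relative to control wells, capped at 0 and 100%. One two-parameter sigmoid per drug and line, fitted in a mixed model over all curves with the slope shared within a line.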

Pyrimethamine = compound: CCc1nc(N)nc(N)c1-c1ccc(Cl)cc1 [Pyrimethamine]; details: top dose 20 µM; top dose inferred
Description: as §1

AZD-0530 = compound: CN1CCN(CCOc2cc(OC3CCOCC3)c3c(Nc4c(Cl)ccc5c4OCO5)ncnc3c2)CC1 [AZD-0530]; details: top dose 2 µM
Description: as §1

PHA-793887 = compound: CC(C)CC(=O)Nc1n[nH]c2c1CN(C(=O)C1CCN(C)CC1)C2(C)C [PHA-793887]; details: top dose 10.24 µM
Description: as §1

PLX4720 = compound: CCCS(=O)(=O)Nc1ccc(F)c(C(=O)c2c[nH]c3ncc(Cl)cc23)c1F [PLX4720]; details: top dose 10 µM
Description: as §1

Epothilone B = compound: C/C(=C\c1csc(C)n1)[C@@H]1C[C@@H]2O[C@]2(C)CCC[C@H](C)[C@H](O)[C@@H](C)C(=O)C(C)(C)[C@@H](O)CC(=O)O1 [Epothilone B]; details: top dose 0.032 µM; top dose inferred
Description: as §1

TPCA-1 = compound: NC(=O)Nc1sc(-c2ccc(F)cc2)cc1C(N)=O [TPCA-1]; details: top dose 20 µM
Description: as §1

[1] = screen: GDSC drug entry 1371, top dose inferred

Row | Cell Line | AUC (Y-39983) | IC50 (Y-39983) [µM] | AUC (Pyrimethamine) | IC50 (Pyrimethamine) [µM] | AUC (AZD-0530) | IC50 (AZD-0530) [µM] | AUC (PHA-793887) | IC50 (PHA-793887) [µM] | AUC (PLX4720; screen: GDSC drug entry 1036) | IC50 (PLX4720; screen: GDSC drug entry 1036) [µM] | AUC (PLX4720; [1]) | IC50 (PLX4720; [1]) [µM] | AUC (Epothilone B) | IC50 (Epothilone B) [µM] | AUC (TPCA-1) | IC50 (TPCA-1) [µM]
1 | IMR-5 (neuroblastoma, adherent) | 0.751 | 5.69 | 0.975 | > 20 | 0.992 | > 2 | 0.618 | 1.28 | 0.989 | > 10 | 0.942 | > 10 | 0.536 | 0.00247 | 0.529 | 1.48
2 | IST-MEL1 (melanoma, adherent) | 0.89 | > 20 | 0.653 | 3.61 | 0.951 | > 2 | 0.897 | > 10.2 | 0.863 | > 10 | 0.859 | > 10 | 0.576 | 0.00337 | 0.87 | > 20
3 | IST-MES1 (mesothelioma, adherent) | 0.984 | > 20 | 0.978 | > 20 | 0.919 | > 2 | 0.97 | > 10.2 |  |  | 0.986 | > 10 | 0.852 | 0.0251 | 0.764 | 7.32
4 | IST-SL1 (small cell lung carcinoma, semi-adherent) | 0.837 | 13.9 | 0.824 | 12.3 | 0.976 | > 2 | 0.608 | 1.28 | 0.929 | > 10 | 0.983 | > 10 | 0.7 | 0.00745 | 0.709 | 4.95
5 | JAR (urogenital system, adherent) | 0.978 | > 20 | 0.881 | > 20 | 0.968 | > 2 | 0.559 | 0.926 | 0.985 | > 10 | 0.98 | > 10 | 0.925 | > 0.032 | 0.902 | > 20
6 | JJN-3 (haematopoietic neoplasm, suspension) | 0.965 | > 20 | 0.985 | > 20 | 0.993 | > 2 | 0.513 | 0.688 | 0.993 | > 10 | 0.986 | > 10 | 0.64 | 0.0045 | 0.76 | 5.9
7 | JURL-MK1 (chronic myeloid leukaemia, suspension) | 0.928 | > 20 | 0.739 | 5.99 | 0.916 | > 2 | 0.793 | 4.66 | 0.964 | > 10 | 0.945 | > 10 | 0.728 | 0.00889 | 0.514 | 1.36
8 | JVM-3 (lymphoid neoplasm, suspension) | 0.929 | > 20 | 0.979 | > 20 | 0.987 | > 2 | 0.819 | 5.96 | 0.821 | 5.91 | 0.87 |  | 0.987 | > 0.032 | 0.783 | 8.59
9 | JiyoyeP-2003 (Burkitt lymphoma, suspension) | 0.886 | 17.5 | 0.836 | 11.1 | 0.983 | > 2 | 0.754 | 3.08 | 0.958 | > 10 | 0.982 | > 10 | 0.741 | 0.00879 | 0.691 | 3.97
10 | K5 (thyroid, adherent) | 0.957 | > 20 | 0.962 | > 20 | 0.967 | > 2 | 0.985 | > 10.2 | 0.57 | 0.963 | 0.675 | 1.88 | 0.637 | 0.00469 | 0.938 | > 20
11 | KALS-1 (glioma, adherent) | 0.905 | > 20 | 0.743 | 8.2 | 0.797 | 1.37 | 0.817 | 8.7 |  |  | 0.973 | > 10 | 0.571 | 0.00336 | 0.908 | > 20
12 | KARPAS-299 (anaplastic large cell lymphoma, suspension) | 0.89 | 16.3 | 0.949 | > 20 | 0.992 | > 2 | 0.376 | 0.31 | 0.931 | > 10 | 0.969 | > 10 | 0.943 | > 0.032 | 0.762 | 6.04
13 | KARPAS-422 (B-cell lymphoma, suspension) | 0.938 | > 20 | 0.879 | > 20 | 0.983 | > 2 | 0.499 | 0.635 | 0.966 | > 10 | 0.983 | > 10 | 0.772 | 0.0122 | 0.86 | 16.3
14 | KCL-22 (chronic myeloid leukaemia, suspension) | 0.908 | 19.8 | 0.836 | 10.3 | 0.729 | 0.492 | 0.34 | 0.25 | 0.991 | > 10 | 0.972 | > 10 | 0.465 | 0.00163 | 0.806 | 8.27
15 | KE-37 (lymphoblastic leukaemia, suspension) | 0.86 | 10.8 | 0.858 | 10.6 | 0.994 | > 2 | 0.448 | 0.479 | 0.858 | 5.31 | 0.987 | > 10 | 0.5 | 0.002 | 0.442 | 0.901
16 | KELLY (neuroblastoma, adherent) | 0.805 | 9.01 | 0.906 | > 20 | 0.952 | > 2 | 0.961 | > 10.2 | 0.987 | > 10 | 0.988 | > 10 | 0.651 | 0.00502 | 0.653 | 3.18
17 | KG-1 (acute myeloid leukaemia, suspension) | 0.89 | 18.7 | 0.986 | > 20 | 0.99 | > 2 | 0.903 | > 10.2 | 0.978 | > 10 | 0.931 | > 10 | 0.672 | 0.0057 | 0.401 | 0.691
18 | KGN (ovary, adherent) | 0.917 | > 20 | 0.896 | > 20 | 0.77 | 0.923 | 0.905 | > 10.2 | 0.923 | > 10 | 0.929 | > 10 | 0.311 | 0.000521 | 0.713 | 5.77
19 | KINGS-1 (glioma, adherent) | 0.951 | > 20 | 0.915 | > 20 | 0.864 | > 2 | 0.927 | > 10.2 | 0.979 | > 10 | 0.966 | > 10 | 0.837 | > 0.032 | 0.9 | > 20
20 | KM12 (large intestine, adherent) | 0.957 | > 20 | 0.611 | 2.59 | 0.91 | > 2 | 0.862 | 10 | 0.984 | > 10 | 0.984 | > 10 | 0.541 | 0.00262 | 0.733 | 6.15
21 | KM-H2 (Hodgkin lymphoma, suspension) | 0.954 | > 20 | 0.844 | 11.2 | 0.993 | > 2 | 0.828 | 5.06 | 0.97 | > 10 | 0.991 | > 10 | 0.691 | 0.00621 | 0.879 | 15.1
22 | KNS-42 (glioma, adherent) | 0.964 | > 20 | 0.984 | > 20 | 0.892 | > 2 | 0.98 | > 10.2 | 0.983 | > 10 | 0.982 | > 10 | 0.572 | 0.00327 | 0.919 | > 20
23 | KP-N-YN (neuroblastoma, adherent) | 0.928 | > 20 | 0.986 | > 20 | 0.959 | > 2 | 0.965 | > 10.2 | 0.923 | > 10 | 0.956 | > 10 | 0.91 | > 0.032 | 0.935 | > 20
24 | KS-1 (glioma, adherent) | 0.851 | > 20 | 0.914 | > 20 | 0.801 | 1.27 | 0.814 | 7.38 | 0.979 | > 10 | 0.976 | > 10 | 0.414 | 0.0011 | 0.823 | 15.8
25 | KU812 (chronic myeloid leukaemia, suspension) | 0.316 | 0.404 | 0.863 | 14.9 | 0.935 | > 2 | 0.447 | 0.466 | 0.925 | > 10 | 0.963 | > 10 | 0.556 | 0.0028 | 0.045 | < 0.0781
26 | KURAMOCHI (ovary, adherent) | 0.959 | > 20 | 0.899 | > 20 | 0.897 | > 2 | 0.871 | > 10.2 | 0.984 | > 10 | 0.982 | > 10 | 0.668 | 0.00637 | 0.957 | > 20
27 | KY821 (leukaemia, suspension) | 0.971 | > 20 | 0.984 | > 20 | 0.988 | > 2 | 0.753 | 3.04 | 0.992 | > 10 | 0.991 | > 10 | 0.982 | > 0.032 | 0.913 | > 20
28 | KYM-1 (rhabdomyosarcoma, adherent) | 0.99 | > 20 | 0.989 | > 20 | 0.99 | > 2 | 0.622 | 1.31 | 0.985 | > 10 | 0.987 | > 10 | 0.665 | 0.00532 | 0.98 | > 20
